In PubChem BioAssay (NCATS):
Where “and” joins values, the source holds several entries; their conditions need not be identical. Identical values can stand only once. Inconclusive means that the source gave no clear call. Such entries were picked first, then a sample of the others. For part of these data: Potencies of inconclusive entries are left out as doubtful fits. Calls of active or inactive are those of the source. Unless noted, the call rests on the fitted dose curve; in most records, active means well fitted curve in the direction sought with a large enough effect; inconclusive means small, poorly fitted or top-dose-only effect, or another doubt; inactive means no such curve, though single readings can be large; an effect the other way counts as inactive or inconclusive.

Tests used:
[1] = NFAT Signaling Pathway (AID 444; active means well fitted curve in either direction with a large enough effect, not every such curve was filed as active; inconclusive means small, poorly fitted or top-dose-only effect, or another doubt;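 further: carbachol stimulus at about its EC50 of 1 µM final; on the % scale 0 is the no-effect control and ±100 the full control effect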); details: Jurkat NFAT-bla M1, carbachol, beta-lactamase ratio, 5 h; at 17.2 µM (top of the series)
Outline: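 Jurkat cells with NFAT-driven β-lactamase reporter and co-expressed M1 receptor, stimulated with carbachol (final 1 uM, ~EC50), compound titration, 5 h at 37 °C. CCF4 loaded 1 h at RT; 460/530 nm ratio gave %activity and AC50.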

[2] = target: DNA repair nuclease/redox regulator APEX1 (Homo sapiens) (UniProt P27695); test: Confirmation qHTS Assay for Inhibitors of the Human Apurinic/apyrimidinic Endonuclease 1 (APE1) (AID 2572);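 further: fluorescence gain from purified APE1 cutting a TAMRA/BHQ-2 THF abasic duplex; on the % scale 0 is the no-effect control and ±100 the full control effect; nearly all actives have a fitted effect of over 30% in size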
Sequence of UniProt P27695 (P27695 whole entry, looked up): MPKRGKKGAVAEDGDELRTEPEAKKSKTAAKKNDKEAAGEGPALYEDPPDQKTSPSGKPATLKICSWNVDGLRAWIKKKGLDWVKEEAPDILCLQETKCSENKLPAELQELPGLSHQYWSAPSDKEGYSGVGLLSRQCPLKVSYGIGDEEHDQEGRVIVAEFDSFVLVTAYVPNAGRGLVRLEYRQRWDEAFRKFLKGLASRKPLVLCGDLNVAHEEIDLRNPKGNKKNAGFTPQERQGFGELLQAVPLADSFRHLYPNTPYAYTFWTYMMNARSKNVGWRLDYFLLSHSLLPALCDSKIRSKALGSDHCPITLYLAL
Outline: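 APE1 preincubated 15 min RT with compound; 50 nM TAMRA/BHQ-2 THF-abasic duplex added; kinetic fluorescence, 3 reads at 60 s intervals, Ex 525/Em 598; progress = read 3 minus read 1.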

[3] = target: Ubiquitin carboxyl-terminal hydrolase 1 (Homo sapiens) (UniProt O94782); test: Inhibitors of USP1/UAF1: Pilot qHTS (AID 504865);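 further: rhodamine fluorescence freed from ubiquitin-rhodamine substrate followed over time; top concentration of the series differs between compounds; on the % scale 0 is the no-effect control and ±100 the full control effect; nearly all actives have a fitted effect of over 35% in size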
Sequence of UniProt O94782 (O94782 whole entry, looked up): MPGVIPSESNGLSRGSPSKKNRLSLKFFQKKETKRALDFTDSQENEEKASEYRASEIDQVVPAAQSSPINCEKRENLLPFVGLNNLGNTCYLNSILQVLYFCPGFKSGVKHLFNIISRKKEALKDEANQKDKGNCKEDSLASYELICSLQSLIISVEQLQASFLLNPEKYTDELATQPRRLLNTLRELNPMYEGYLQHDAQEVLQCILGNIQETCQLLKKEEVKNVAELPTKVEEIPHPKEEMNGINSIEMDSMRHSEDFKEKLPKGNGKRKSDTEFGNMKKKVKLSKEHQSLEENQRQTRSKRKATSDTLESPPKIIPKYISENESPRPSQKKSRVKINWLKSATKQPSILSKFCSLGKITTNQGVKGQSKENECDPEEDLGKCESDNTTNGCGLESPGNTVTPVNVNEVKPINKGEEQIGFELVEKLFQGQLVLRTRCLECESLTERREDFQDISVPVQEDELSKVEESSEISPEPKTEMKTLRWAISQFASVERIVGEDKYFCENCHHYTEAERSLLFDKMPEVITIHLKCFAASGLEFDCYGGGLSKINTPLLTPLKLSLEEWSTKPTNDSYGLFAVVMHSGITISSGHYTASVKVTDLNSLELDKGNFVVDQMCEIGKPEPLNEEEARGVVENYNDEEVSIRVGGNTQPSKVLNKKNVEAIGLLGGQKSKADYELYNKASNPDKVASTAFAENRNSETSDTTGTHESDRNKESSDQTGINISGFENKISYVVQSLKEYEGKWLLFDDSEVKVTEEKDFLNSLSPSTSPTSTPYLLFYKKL
Outline: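 Enzyme-free wells gave the negative control, while test wells held 1nM USP1/UAF1 preincubated with compound for 15 min at room temperature. Ub-Rho at 150nM final started the reaction, and fluorescence at 480/540 nm was recorded kinetically.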

[4] = qHTS of pediatric cancer cell lines to identify multiple opportunities for drug repurposing: Primary screen for SK-N-MC cells (AID 1347093); details: SK-N-MC viability, CellTiter-Glo luminescence, 48 h; activity change, negative = cytotoxic: at 46 µM (top of the series);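 further: plate controls were DMSO neutral control for no effect and bortezomib for full effect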
Outline: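 Metabolically active cells were quantified by ATP-dependent luminescence (CellTiter-Glo, 15 min at room temperature) following 48 h treatment. Cells had been plated at 500-1,000 per well and settled for 5 h beforehand.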

[5] = qHTS of pediatric cancer cell lines to identify multiple opportunities for drug repurposing: Primary screen for BT-37 cells (AID 1347094); further: potency means the concentration at half of the fitted maximal effect
Outline: (§1)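 Phenotypic viability qHTS, 48 h compound exposure, CellTiter-Glo luminescence read-out; multi-concentration dosing so that potency and efficacy derive directly from the primary screen's curves.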

[6] = qHTS of pediatric cancer cell lines to identify multiple opportunities for drug repurposing: Primary screen for Saos-2 cells (AID 1347097); details: Saos-2 viability, CellTiter-Glo ATP luminescence, 48 h; activity change, negative = cytotoxic: at 46 µM (top of the series); further: on the % scale 0 is the no-effect control and ±100 the full control effect; nearly all actives have a fitted effect of over 40% in size
Outline: as §1

[7] = qHTS of pediatric cancer cell lines to identify multiple opportunities for drug repurposing: Primary screen for BT-12 cells (AID 1347101); further: potency means the concentration at half of the fitted maximal effect; nearly all actives have a fitted effect of over 25% in size
Outline: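 Cells (500-1,000/well) rested 5 h, then received compounds for 48 h; metabolically active cells were measured by CellTiter-Glo luminescence. Final concentrations spanned up to 46 µM (MIPE, 11-point) or 0.59 nM-46 µM (NPC, 8-point) in primary screens, 11-point in follow-ups.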

[8] = qHTS of pediatric cancer cell lines to identify multiple opportunities for drug repurposing: Primary screen for Rh41 cells (AID 1347108);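 further: luminescence drop marks cytotoxic hits; nearly all actives have a fitted effect of over 70% in size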
Outline: as §1

[9] = qHTS profiling for inhibitors of Plasmodium falciparum proliferation (AID 504749); further: nearly all actives have a fitted effect of over 60% in size; further: potency means the concentration at half of the fitted maximal effect; details: P. falciparum in erythrocytes, SYBR Green DNA, 72 h; parasite line B
Outline: (§2)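 SYBR Green fluorescence (ex 485 nm, em 535 nm) reports parasite DNA after 72 h compound exposure of infected red cells at 0.3% parasitemia, 2.5% hematocrit; signal normalized to 0.29 uM artemisinin and vehicle wells.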

AA1029 = test: as above; details: P. falciparum in erythrocytes, SYBR Green DNA, 72 h; series mostly up to 28.7 µM
Outline: as §2

CP185 = test: as above; details: P. falciparum in erythrocytes, SYBR Green DNA, 72 h; series mostly up to 28.7 µM
Outline: as §2

CP191 = test: as above; details: P. falciparum in erythrocytes, SYBR Green DNA, 72 h; series mostly up to 28.7 µM
Outline: as §2

CP215 = test: as above; details: P. falciparum in erythrocytes, SYBR Green DNA, 72 h; series mostly up to 28.7 µM
Outline: as §2

CP252 = test: as above; details: P. falciparum in erythrocytes, SYBR Green DNA, 72 h; series mostly up to 28.7 µM
Outline: as §2

HEK293 = test: Cytotoxic Profiling of Annotated Libraries Using Quantitative High-Throughput Screening (AID 1296008); details: Five cell lines viability, CellTiter-Glo ATP luminescence, 48-72 h; max response: stronger effect = lower value; further: on the % scale 0 is the no-effect control and ±100 the full control effect; nearly all actives have a fitted effect of over 60% in size
Outline: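 Cells exposed to compounds for 48 or 72 hr at 37 degrees Celsius. Viability read as ATP-coupled luminescence with CellTiter-Glo after 10 min at room temperature.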

WaGa = test: qHTS assay to identify novel small-molecules to repurpose for Merkel cell carcinoma treatment (AID 1296009); details: MCC and control cell lines, CellTiter-Glo viability, 72 h; series mostly up to 46 µM; further: on the % scale 0 is the no-effect control and ±100 the full control effect; nearly all actives have a fitted effect of over 60% in size
Outline: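 CellTiter-Glo luminescence after 72 hr compound exposure at 37 degree celsius gave cell viability. Libraries NPC and MIPE were run as 8- and 11-point dose responses; RLUs normalized to DMSO (negative) and no-cell (cytotoxicity) controls.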

HeLa = test: Primary qHTS to identify gynecologic anti-cancer compounds using libraries of approved drugs and bioactive compounds (AID 1345084); details: Gynecologic cancer cell panel viability, ATPlite luminescence, 48 h; series mostly up to 57.5 µM; further: on the % scale 0 is the no-effect control and ±100 the full control effect; nearly all actives have a fitted effect of over 55% in size
Outline: (§3)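 ATP-based viability (ATPlite), 1,000 cells/well, 16 h pre-incubation, 48 h compound at 37 C, 5% CO2, 15 min RT before read.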

SKOV3 = test: as above; details: Gynecologic cancer cell panel viability, ATPlite luminescence, 48 h; series mostly up to 57.5 µM
Outline: as §3
Tags describe the fitted curve by direction and shape.

In the case of CCOC(=O)[C@H](CCc1ccccc1)N[C@@H](C)C(=O)N1CCC[C@H]1C(=O)O, the activity change, negative = inhibition [1] is reported as inactive: 0.851% and inconclusive: -31.4% [inhibitor], the Potency [2] is reported as “inactive” and the Potency [3] is reported as “inactive”. The Potency [4] was “inactive”, the Potency [5] was inconclusive [cytotoxic, full curve] and the Potency [6] was “inactive”. For the same compound, the Potency [7] was inconclusive [cytotoxic, single point], the Potency [8] was “inactive” and the Potency [9] was inconclusive [inhibitor, single point]. The Potency (AA1029) was inconclusive [inhibitor, single point], the Potency (CP185) was “inactive” and the Potency (CP191) was “inactive”. The Potency (CP215) was inconclusive [inhibitor, single point], the Potency (CP252) was “inactive” and the max response (HEK293) was inactive: -1.68%. The Potency (WaGa) was “inactive”, the Potency (HeLa) was “inactive” and the Potency (SKOV3) was “inactive”.
